Experimental data: patent US20240026032A1 (Alexion, published 2024)

Molecular target: T1, Human DLAT recombinant protein (ProSpec, Catalog # ENZ-082) (human, UniProt P10515 87-647, limits assumed)
T1 construct: also called DLAT antigen; Dihydrolipoamide Acetyltransferase
T1 sequence (looked up): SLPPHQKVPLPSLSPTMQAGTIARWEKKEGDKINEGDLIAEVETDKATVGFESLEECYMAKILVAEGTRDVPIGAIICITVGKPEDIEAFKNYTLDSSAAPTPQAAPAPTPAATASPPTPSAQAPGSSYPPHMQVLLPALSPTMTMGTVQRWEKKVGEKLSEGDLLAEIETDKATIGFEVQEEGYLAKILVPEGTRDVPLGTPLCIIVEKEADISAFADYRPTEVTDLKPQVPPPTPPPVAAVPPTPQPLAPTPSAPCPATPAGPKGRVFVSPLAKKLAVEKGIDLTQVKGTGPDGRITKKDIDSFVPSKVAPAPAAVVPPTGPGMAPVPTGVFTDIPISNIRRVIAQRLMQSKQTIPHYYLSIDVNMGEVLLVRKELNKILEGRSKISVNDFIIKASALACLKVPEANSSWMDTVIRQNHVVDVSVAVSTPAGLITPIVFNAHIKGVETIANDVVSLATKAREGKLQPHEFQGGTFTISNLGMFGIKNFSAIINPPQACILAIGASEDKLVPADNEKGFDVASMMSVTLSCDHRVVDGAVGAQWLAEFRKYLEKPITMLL
Assay: BLI (Octet Red), PD-L1 Fc loaded on anti-human IgG Fc tips, DLAT as analyte
Procedure: Antibodies and antibody fusions were diluted to 16 μg/mL in PBS and loaded onto anti-human IgG Fc tips (ForteBio, Catalog # 18-5064). Human DLAT recombinant protein (ProSpec, Catalog # ENZ-082) was diluted into PBS to 10 μg/mL. […] Finally, a dissociation step in PBS was performed to determine dissociation from the bound antibodies.

B1: Programmed Death Ligand 1 (PD-L1) Fc chimera (R&D Systems, Catalog # 156-B[…]) (Fc fusion)
chain: not shown
notes: Described as a dimeric protein having two PD-L1 proteins fused to a human Fc; also called PD-L1 Fc control; not shown: human Fc of the bought chimera
Question: Does B1 bind?
Answer: no binding (tested: 10 µg/mL)
